According to PubChem BioAssay AID588591 (National Center for Advancing Translational Sciences (NCATS), 2011):
About 4,700 (1.2%) of roughly 390,000 compounds were called active. This list was built around the results that the source calls inconclusive (neither active nor inactive); the mix of calls is not that of the screen. Calls come from the whole dose curve; as a rule, active = well fitted inhibition curve with a large enough effect; inconclusive = small, poorly fitted or top-dose-only effect, or another doubt; inactive = no such curve, though single readings can be large or run the other way. Where the call is inconclusive, the potency comes from a doubtful curve fit.

molecular target: DNA polymerase eta (Homo sapiens) (UniProt Q9Y253); experiment: qHTS for Inhibitors of Polymerase Eta; details: recombinant Pol eta, fluorescent DNA replication assay; series mostly up to 114 µM; activity change, negative = inhibition: at the top concentration
How it was run: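 Pol eta (10 nM) was preincubated with compounds for 15 min at room temperature, after which fluorescent replication substrate (50 nM final) was added to start the reaction. Fluorescence was read kinetically at 0 and 10 min.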
% is set by controls: 0 for no effect and ±100 for the full control effect; potency is the fitted concentration of half-maximal effect; tags give direction and shape of the fitted curve.

UniProt Q9Y253, sequence (Q9Y253 whole entry, looked up): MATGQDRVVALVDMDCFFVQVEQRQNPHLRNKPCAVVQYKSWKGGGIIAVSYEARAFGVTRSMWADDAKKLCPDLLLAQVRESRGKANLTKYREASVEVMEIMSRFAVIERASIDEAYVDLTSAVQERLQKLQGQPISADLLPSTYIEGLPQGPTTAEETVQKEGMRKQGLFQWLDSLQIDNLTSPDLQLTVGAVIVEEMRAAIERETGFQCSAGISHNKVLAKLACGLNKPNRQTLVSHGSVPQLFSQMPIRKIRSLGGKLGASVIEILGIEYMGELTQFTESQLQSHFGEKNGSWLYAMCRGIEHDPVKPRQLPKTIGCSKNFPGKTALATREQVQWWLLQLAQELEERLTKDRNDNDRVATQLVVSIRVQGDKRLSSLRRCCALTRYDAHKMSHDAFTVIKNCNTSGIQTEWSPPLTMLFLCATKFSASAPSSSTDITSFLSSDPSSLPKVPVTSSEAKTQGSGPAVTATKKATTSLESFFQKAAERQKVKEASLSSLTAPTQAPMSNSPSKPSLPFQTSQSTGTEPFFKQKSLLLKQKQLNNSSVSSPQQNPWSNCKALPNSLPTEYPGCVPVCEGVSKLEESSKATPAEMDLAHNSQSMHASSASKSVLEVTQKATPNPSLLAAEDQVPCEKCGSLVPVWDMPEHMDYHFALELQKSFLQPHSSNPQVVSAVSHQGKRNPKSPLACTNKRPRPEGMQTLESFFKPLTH

SMILES | Potency | activity change, negative = inhibition
O=C(CN1C(=O)CN=C(c2ccccc2)c2ccccc21)NCc1ccco1 | inconclusive: 25.1 µM [inhibitor, single point] | –
COc1ccc(C2/C=C\CN(C(=O)Oc3ccc(C(F)(F)F)cc3)CC(=O)N2Cc2ccc(F)cc2)cc1 (stereo unspecified) | inconclusive: 70.8 µM [inhibitor, partial curve, poor fit] | –
Cc1ccc2c(c1Cl)NC(C(=O)O)C1CC(Sc3ccccc3[N+](=O)[O-])C(Cl)C21 (stereo unspecified) | active: 44.7 µM | –
O=C1NC(=S)NC(=O)C1=Cc1ccc(OCC(=O)N2CCCC2)cc1 | inconclusive: 70.8 µM [inhibitor, single point] | –
O=C1NC(=S)N(c2ccc(Br)cc2)C(=O)/C1=C/N1CCN(C(=O)c2ccco2)CC1 | – | inactive: -10%
O=C1NC(=O)N(Cc2ccccc2)C(=O)/C1=C/C=C/c1ccco1 | active: 35.5 µM | –
O=C(Cc1cc(=O)oc2cc(O)ccc12)NN=Cc1ccc(N(CCCl)CCCl)cc1 | active: 15.8 µM | –
COc1ccccc1N1C(=O)NC(=O)/C(=C/c2ccc3c4c(cccc24)CC3)C1=O | inconclusive: 35.5 µM [inhibitor, partial curve, poor fit] | –
Cc1nn2c(=O)cc(COC(=O)c3ccccc3NC(=O)c3cccs3)nc2s1 | active: 89.1 µM | –
Cc1ccc(N2C(=O)NC(=O)/C(=C/c3ccoc3)C2=O)cc1 | active: 3.16 µM | –
C=CCn1c(O)c(/C=C2/C=c3ccccc3=N2)c(=O)[nH]c1=S | inconclusive: 50.1 µM [inhibitor, partial curve] | –
COc1ccc(/C=C2\C(=O)NC(=S)N(C)C2=O)cc1C | active: 2.82 µM | –
S=c1[nH]nc(-c2ccco2)n1/N=C/c1cccs1 | inconclusive: 39.8 µM [inhibitor, partial curve, poor fit] | –
O=C1NC(=O)C(Sc2ccccc2[N+](=O)[O-])C(=O)N1 | – | inactive: -21.2%
COc1ccc(-c2nc3ccccc3c(=O)n2-c2ccc(OC)cc2)cc1 | – | inactive: -18.1%
N#Cc1c(/N=C/c2ccc(O)cc2O)sc2c1C1CCN2CC1 | inconclusive: 20 µM [inhibitor, full curve, poor fit] | –
CCCCn1c(NC(=O)c2ccc(Br)o2)c(C(=O)OCC)c2nc3ccccc3nc21 | active: 22.4 µM | –
N#CC1=C(N)Oc2c(c(=O)sc3ccccc23)C1c1ccncc1 (stereo unspecified) | – | inactive: -13.5%
Cc1ccc(N2C(=O)NC(=O)/C(=C\c3ccoc3)C2=O)cc1 | active: 50.1 µM | –
C=CCN1C(=O)/C(=C/c2ccc(N3CCOCC3)o2)C(=O)NC1=S | – | inactive: -17.5%
CCOP(=O)(C#CC(C)(C)C)C(C)(O)c1ccccc1 (stereo unspecified) | – | inactive: -17.5%
